Where only a bound is given, the exact number is not on record here.

For series [1], the target named is T1, NET (norepinephrine transporter) (Homo sapiens, UniProt P23975).
T1 construct: expressed in transfected cells; host or cells: LLC-PK1
As to the kind of experiment: In vitro binding assay, LLC-PK1 cell membranes overexpressing NET, [125I]IPT. To be noted: LLC-PK1 membrane homogenates, mean ± SEM of three determinations. Here is the method:
(§1) However, it metabolized rapidly in the blood.
(§2) In an in vitro binding assay using LLC-PK1 cells over expressing three different types of monoamine transporters (SERT, DAT or NET, respectively) and well-characterized ligands, [^125I]IPT and [^125I]IDAM, the binding affinity of each transporter was evaluated.

The target of series [2] is T2, SERT (serotonin transporter) (Rattus norvegicus, UniProt P31652).
T2 construct: expressed in transfected cells; host or cells: LLC-PK1
As to the kind of experiment: In vitro binding assay, LLC-PK1 cell membranes overexpressing SERT, [125I]IDAM. To be noted: for Binding affinity and selectivity: SERT versus DAT, NET. How it is done: as §1, §2

Series [3] addresses T3, DAT (dopamine transporter) (Rattus norvegicus, UniProt P23977).
T3 construct: expressed in transfected cells; host or cells: LLC-PK1
T3 sequence (P23977 whole entry): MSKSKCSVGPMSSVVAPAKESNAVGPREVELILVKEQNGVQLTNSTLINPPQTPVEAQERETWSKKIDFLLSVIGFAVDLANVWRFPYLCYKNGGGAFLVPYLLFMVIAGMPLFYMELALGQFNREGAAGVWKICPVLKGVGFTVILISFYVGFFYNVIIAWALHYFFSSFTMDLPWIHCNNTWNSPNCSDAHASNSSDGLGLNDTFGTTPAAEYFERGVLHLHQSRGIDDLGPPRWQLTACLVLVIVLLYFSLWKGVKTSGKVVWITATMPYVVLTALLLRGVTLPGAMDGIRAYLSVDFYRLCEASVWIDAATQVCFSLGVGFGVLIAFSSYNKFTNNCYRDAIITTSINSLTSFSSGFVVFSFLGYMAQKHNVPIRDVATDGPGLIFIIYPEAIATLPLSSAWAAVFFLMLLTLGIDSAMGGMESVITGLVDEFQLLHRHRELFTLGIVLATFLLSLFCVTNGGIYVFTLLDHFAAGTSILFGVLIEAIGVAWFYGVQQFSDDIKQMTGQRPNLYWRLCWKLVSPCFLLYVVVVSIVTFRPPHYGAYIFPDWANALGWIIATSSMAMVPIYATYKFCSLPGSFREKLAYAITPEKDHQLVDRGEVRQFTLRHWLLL
As to the kind of experiment: In vitro binding assay, LLC-PK1 cell membranes overexpressing DAT, [125I]IPT. The following applies: LLC-PK1 membrane homogenates, mean ± SEM of three determinations. How it is done: as §1, §2

For series [4], the target named is T4, SERT (Rattus norvegicus, UniProt P31652).
T4 construct: from tissue; host or cells: rat brain in vivo (hypothalamus, striatum, hippocampus, cerebellum)
To be noted: rats, cited from earlier work.

Series [5] has as its target SERT (Homo sapiens, UniProt P31645). The following applies: Oya et al. 2001; Huang et al. 2001b; read-out: Ki SERT (literature); cited from earlier work.
For series [6] the following is noted: cited from earlier work.
In series [7] the target is T4, SERT. As to the kind of experiment: Blocking studies of 4-[18F]-ADAM uptake in rat brain regions. It counts as in vivo, rats.
From the text: as §1

Series [8] has as its system SERT. As to the kind of experiment: Baboon study of 4-[18F]-ADAM.
Series [9] is described as follows: Biodistribution of 4-[18F]-ADAM (12a) in rats. In kind it is in vivo.
From the text: as §1

Series [10] can be described thus: In vivo metabolism of 4-[18F]ADAM in rats.
From the text: as §1

The mark [11] stands for this setting: LLC-PK1 membrane homogenates, [125I]IDAM, mean ± SEM of three determinations.

What is called Ki is a measure of affinity in units of concentration, obtained from inhibition or displacement. Turning to “2-(5-Amino-4-chloro-2-nitro-phenylthio)-N,N-dimethyl-benzamide [Compound 18]”, the results for the inhibition constant (Ki) in series [1], in series [2] (setting [11]) and in series [3] were 15000 nM, 2.39 ± 0.54 nM and 3050 nM, respectively. In addition, the “Binding affinity and selectivity” value in [2] is “good binding affinity and selectivity”.

Broadly, the melting point is the temperature of the solid-liquid transition. Compound `CN(C)Cc1ccccc1Sc1ccc(F)cc1N` [Compound 12, N,N-Dimethyl-2-(2-amino-4-fluorophenylthio)benzylamine] had a melting point of 56 to 58 °C. The “Brain uptake and specific binding” value on SERT [4] (11C-labelled, Huang et al., 2001b) was “excellent brain uptake and a high degree of specific binding”. In series [2] ([…]), this compound returned a Ki of 0.081 nM.

As to `CN(C)Cc1ccccc1Sc1cc(F)c(Cl)cc1N` [Compound 25], the values for the Ki in [2] (setting [11]) and in series [3] were 0.05 ± 0.01 nM and 3020 nM, respectively. The “Binding affinities to the other monoamine transporters, fold lower than SERT” value in series [2] (SERT versus DAT and NET) is reported as “more than 1000 fold”.

As to `CN(C)Cc1ccccc1Sc1ccc(I)cc1CF` [F-IDAM], the Ki on SERT [5] is 0.003 nM. For the same compound, the “Brain uptake and binding properties” value on SERT [4] (Oya et al., 2001) is “excellent initial brain uptake and binding properties”. Moreover, the “Defluorination in baboon” value in series [6] is listed as “defluorinated rapidly”.

In the case of `CN(C)Cc1ccccc1Sc1ccc(CF)cc1N` [AFM], the Ki at SERT [5] is 1.8 nM.

For the compound `CN(C)Cc1ccccc1Sc1ccc([18F])cc1N` [Compound 12a, N,N-Dimethyl-2-(2-amino-4-[^18F]fluorophenylthio)benzylamine], the “Uptake in hypothalamus, hippocampus and striatum after pretreatment” value on SERT [7] (rats pre-treated with methylphenidate) is recorded as “no significant changes”; on SERT [7] (rats pre-treated with nisoxetine), “no significant changes”; at SERT [7] (rats pretreated with (+)McN 5652, 2 mg/kg 5 min prior to IV injection), “significant decreases”. The “Uptake in the skull (in vivo defluorination)” value in the series with SERT [8] is listed as “did not increase with time”. Also, the “Uptake in rat brain” value in [9] (preliminary biodistribution study in rats) is about 1 %/g. For the same compound, the “Radioactivity in the femur (in vivo defluorination)” value in [9] (rats) was “increases with time”. Moreover, the Brain uptake in series [9] (rats, 2 min after i.v. injection) was 2.13 % dose/organ; in series [9] (rats, 30 min after i.v. injection), 1.90 % dose/organ; in series [9] (rats, 60 min after i.v. injection) it was 0.95 % dose/organ. The “Specific binding, hypothalamus-cerebellum/cerebellum” value in series [9] (rats, 2 h post-injection (peak)) came out at 12.49. Besides, the “Time of peak specific binding” value in [9] (rats, post-injection) came to 2 h. Moreover, in series [10] (rat brain), the “Radioactivity recovered as parent compound, brain” value is listed as over 96%. Moreover, the “Radioactivity recovered as parent compound, plasma” value in series [10] (rat plasma) is given as under 7%.

As for “2-(4-Chloro-5-fluoro-2-nitro-phenylthio)-N,N-dimethyl-benzenethanamine [Compound 21]”, the results for the Ki in series [1], in [2] (setting [11]) and in series [3] were 2810 nM, 4.16 ± 0.33 nM and 31900 nM, respectively. Besides, the “Binding affinity and selectivity” value in series [2] is “good binding affinity and selectivity”.

The record behind these values is patent US7041851B2, “Fluorinated phenyl thiophenyl derivatives and their use for imaging serotonin transporters” (The Trustees of the University of Pennsylvania, priority 2002, dated 2006).
